Measured values from the supplement of paper PMC3334620.
Over roughly 33,000 sequences, “E-score (-0.5 to 0.5)” has its median near -0.012; the highest 2% begin near 0.29. The list shows a part of the results.

Target: T1, Ybr033w (UniProt P38073)
T1 sequence: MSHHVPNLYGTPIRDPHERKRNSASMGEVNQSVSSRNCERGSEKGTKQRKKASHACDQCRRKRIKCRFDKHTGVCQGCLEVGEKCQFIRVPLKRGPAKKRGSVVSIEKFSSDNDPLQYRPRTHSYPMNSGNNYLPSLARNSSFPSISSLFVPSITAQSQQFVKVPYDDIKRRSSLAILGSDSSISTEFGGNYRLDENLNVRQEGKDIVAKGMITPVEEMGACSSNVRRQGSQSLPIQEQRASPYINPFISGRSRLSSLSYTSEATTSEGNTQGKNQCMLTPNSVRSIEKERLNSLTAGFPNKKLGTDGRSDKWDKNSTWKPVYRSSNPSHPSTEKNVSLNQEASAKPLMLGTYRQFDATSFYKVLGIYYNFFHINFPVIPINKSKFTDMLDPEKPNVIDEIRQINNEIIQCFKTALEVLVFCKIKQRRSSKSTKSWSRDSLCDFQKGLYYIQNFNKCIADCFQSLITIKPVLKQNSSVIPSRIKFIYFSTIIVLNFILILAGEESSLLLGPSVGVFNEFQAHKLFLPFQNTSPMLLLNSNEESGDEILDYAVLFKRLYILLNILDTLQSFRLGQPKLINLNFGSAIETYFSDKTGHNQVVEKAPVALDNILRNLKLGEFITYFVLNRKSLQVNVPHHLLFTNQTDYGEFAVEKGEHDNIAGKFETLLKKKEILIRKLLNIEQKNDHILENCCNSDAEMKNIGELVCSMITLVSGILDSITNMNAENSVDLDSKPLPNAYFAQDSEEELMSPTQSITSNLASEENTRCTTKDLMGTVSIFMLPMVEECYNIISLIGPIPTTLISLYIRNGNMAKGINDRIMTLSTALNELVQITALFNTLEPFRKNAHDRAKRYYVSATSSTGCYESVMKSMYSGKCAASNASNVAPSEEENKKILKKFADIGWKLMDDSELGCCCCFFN
Test: PBM E-score (8-mer binding enrichment) (E-score (-0.5 to 0.5)); higher = stronger / more preferred TF binding; most listed sequences are background and not binding sites
Details: protein concentration: 200 nM; construct: GST-full length
Method in brief: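 E-scores (a modified Wilcoxon-Mann-Whitney statistic) were assigned by the Universal PBM Analysis Suite to every ungapped eight-base word pooled with its reverse complement. The input came from universal all-10-mer Agilent arrays made double-stranded by primer extension and probed with GST-tagged yeast transcription factors at about 100-200 nM. Fluorescent anti-GST detected bound protein, and masliner normalised the scans.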

Sequence	PBM E-score
CCGACGTA	-0.169
CACCCGGA	0.116
CCCCGGAC	-0.185
CAACGGAG	-0.0398
CCACTCAG	-0.0712
CTTACAGC	0.00203
ATCGCCCC	-0.345
CTTACTAC	0.144
CAGGACTG	-0.233
GGAGGGAC	-0.188
CGAACGCG	0.00834
TCCCTCGA	-0.22
CGTTTCGC	-0.18
GCAACTAA	0.213
GTCGTCTA	-0.0547
AGTAAACA	0.251
AGGCCTCA	-0.334
CAAGAAGC	0.15
ACTAACGA	0.107
CGTCGTGA	-0.239
GCCCCGCC	-0.072
CCTTCATA	-0.0235
AGGGGACT	-0.203
GAGTTAGC	0.0319
ACCTTTGG	-0.336

Sequence	PBM E-score
GTGCGCAA	-0.227
ATGCTACA	0.0818
CCTGCACG	-0.159
AAGGTAGC	-0.0713
CGTAAGAA	0.0778
CTATTGAC	0.19
AGAGCTGC	-0.262
GATAATCC	0.375
AGTATAGC	-0.00884
AGCGTTCG	-0.153
ATAGGGCG	0.0123
ATAAGCCA	-0.12
CGCCCACA	-0.0767
ACAGGTGG	-0.153
GACCATAA	-0.084
AGTGCGTC	-0.168
CGCGTACA	-0.22
TAAAGGAA	0.162
CGTAGACC	-0.168
CCGCCGGA	-0.0333
GATTGTCC	-0.0168
GCTCACGA	-0.0945
ATGCTGTC	-0.093
ATGCGTGA	0.117
AACCAAGC	-0.0656

Sequence	PBM E-score
AACCACGC	-0.0972
ACAGTTAC	0.0005
CGGTCGGA	-0.122
ACAATATC	0.293
CTATGGTA	0.094
ATCACCGG	-0.173
ATTCCGTA	0.287
ATTTGGTG	0.162
ACCATGTA	0.0954
GCTTAAAC	0.0164
CCGCATAG	-0.0455
CTCGCCAA	-0.0378
CATTACTC	0.11
AGGAGCAG	-0.336
AAACCATT	0.0861
GTAATGAA	0.154
ATGTGCCC	-0.0255
GAGAACGC	-0.147
CCTGAGTC	0.0158
CTGCTCGA	-0.298
AAACTCGA	0.135
AGGTCCAG	0.0347
CAGAAGAC	0.131
CGCGTGCC	-0.174
ACCATATG	-0.107

Sequence	PBM E-score
TAGCCCCA	-0.07
ACACATGG	-0.0966
CTAAGGAA	0.0694
GTGAGGCA	-0.173
CCCCCTCC	-0.436
AAGTCCCT	-0.0649
GGAGAAGA	-0.0783
TCCCCTCA	-0.098
CTTTGCTA	0.0685
CGCCGTAA	-0.00075
GCGTTTAC	-0.152
GAATCAGC	-0.0381
CATGTCAA	0.0462
AGTTAACT	-0.0606
ATATTGGG	-0.0335
CCAAAGCG	-0.111
AATGACCC	-0.0307
ACAGGGTG	-0.236
CCCTATTA	0.0075
ATCTCAAC	0.16
AGAGCGCG	-0.0481
CAGGCCAA	-0.209
CATCGAAA	0.0429
ACTCGATA	0.238
AATGTCGG	0.0232

Sequence	PBM E-score
CCCCTATA	-0.111
AATACGCG	0.0536
TATCATCA	0.216
GGCGTTAA	-0.0939
ACAGCGGT	-0.173
GTCAACTA	0.161
ATCACGGA	0.133
ACAGAGCC	-0.195
CCGTGTCG	-0.114
CACCAATC	-0.0769
CTGGCAGA	-0.00651
ACGAGTCT	-0.165
CTACGTCA	-0.0853
CACGTTAG	-0.0646
ATCGTTTA	0.307
ATGCGCCC	-0.0256
AGCTGGAG	-0.144
ATGAAGGG	-0.0569
TGAATAAA	0.195
GACAGTAA	0.0683
CGTTGGGA	-0.168
GCCAGACC	-0.177
CTACGGAG	-0.072
CGGGATAG	-0.143
AGGGCTTG	-0.134

Sequence	PBM E-score
CAAGCTAC	0.0217
ACTGCAAT	0.0873
GCCCAGGC	-0.389
CGCCGAAG	-0.197
ACCACTGG	0.0408
CGACCACA	-0.126
AGCAGCAG	-0.0491
ACTCGCGA	0.241
GACGCGCC	-0.203
ACAACGAA	0.0989
ACAATTCC	0.137
AGGGGGCA	-0.293
ATCTGTTA	0.169
AAGAAACT	0.249
CGATCCCA	-0.212
AACATAAT	0.295
GTGGTATA	0.0819
CAAAATGA	0.139
ATTATGGC	0.169
ACGAGCAA	-0.0912
CCCCCTGA	-0.445
CCTTATCC	-0.316
CAATGAAC	0.00305
ACACCACG	-0.187
ACCATGAG	-0.124

Sequence	PBM E-score
AGATCCTC	-0.00161
CAATTTTC	0.212
CTATCGTA	0.0572
AGCATCTG	-0.193
ATGTTTTA	0.0642
TAACCTGA	0.0342
AGAGAGCC	-0.2
AGCTCTCC	-0.265
ACGAATCC	0.052
TACAACCA	0.149
CTTTTATA	0.176
CCTTACAG	-0.0582
CCGCAGTC	-0.151
ACGGACGA	0.0974
TTGATCAA	0.096
GTTGCGGA	-0.0408
CCAAGCCC	-0.289
CAGTAACA	0.186
ATCAGTGG	-0.0788
GTGGGATA	0.037
ACATTGGG	-0.0214
ACCAGGCA	-0.137
